# Data reported in the supplement of paper PMC12462457.
# Counter-ions that a name gives are not always drawn. ± gives the standard deviation of the averaged measurements. The list shows a part of the results.
# System: OVCAR8
# Assay: cell count relative to DMSO vehicle (fold change); OVCAR8 is a high-grade serous ovarian cancer line and CX-5461 an RNA polymerase I inhibitor; higher = more surviving senescent cells (less killing)
# Conditions: senescence inducer: CX-5461 3 µM 48 h, then 6 d recovery (CX senescent), exposure time 24 h
Compound,cell count (compound dose 1 µM),cell count (compound dose 5 µM)
COc1c(O)cc(O)c2c(=O)cc(-c3ccccc3)oc12 [Wogonin],1.07 ± 0.23,0.926 ± 0.2
CCOc1nc2cccc(C(=O)OC(C)OC(=O)OC3CCCCC3)c2n1Cc1ccc(-c2ccccc2-c2nn[nH]n2)cc1 (stereo unspecified) [Candesartan Cilexetil],1.08 ± 0.069,1.13 ± 0.24
COc1ccc(-c2oc3c(CC=C(C)C)c(O)cc(O)c3c(=O)c2O)cc1 [Icaritin],1.16 ± 0.19,1.14 ± 0.3
CCCNS(=O)(=O)Nc1ncnc(OCCOc2ncc(Br)cn2)c1-c1ccc(Br)cc1 [Macitentan],1.09 ± 0.43,1.08 ± 0.21
COC(=O)c1c2c(c3ccccc3c1O)OC(C)(C)C=C2 [Mollugin],0.845 ± 0.073,0.078 ± 0.025
CC1(C)CCN(CCOc2ccc3[nH]ccc3c2)c2ccc(-c3cccnc3)cc21,1.14 ± 0.081,1.15 ± 0.053
COc1ccc(/C=C/C(=O)C2(C(=O)/C=C/c3ccc(OC)c(OC)c3)CCCCC2)cc1OC,1.07 ± 0.03,0.862 ± 0.037
CC(C)C(C(=O)O)N1C(=O)C(=Cc2ccc(Br)cc2)SC1=S (stereo unspecified),1.07 ± 0.26,1.01 ± 0.097
Nc1ncnc2c1c(-c1cccc(OCc3ccccc3)c1)cn2C1CC(CN2CCCC2)C1 (stereo unspecified),1.02 ± 0.21,0.966 ± 0.11
Cc1cc2ncnn2cc1Nc1ncc2c(n1)n(C1CCOCC1)c(=O)n2C,1.24 ± 0.33,1.21 ± 0.34
CC(=O)O[C@H]1CC[C@]2(C)[C@H]3CC=C4[C@@H]5CC(C)(C)CC[C@]5(C(=O)O)CC[C@@]4(C)[C@]3(C)CC[C@H]2C1(C)C,1.029 ± 0.0042,1.01 ± 0.1
O=C(Nc1cc(Cl)cc2c1[nH]c1cnccc12)c1cccnc1,1.18 ± 0.013,1.161 ± 0.0057
C[C@@H]1CC[C@]2(C(=O)O[C@@H]3O[C@H](CO)[C@@H](O)[C@H](O)[C@H]3O)CC[C@]3(C)C(=CC[C@@H]4[C@@]5(C)CC[C@H](O[C@@H]6OC[C@H](O)[C@H](O)[C@H]6O)C(C)(C)[C@@H]5CC[C@]43C)[C@@H]2[C@]1(C)O [Ziyuglycoside I],0.787 ± 0.0085,1.12 ± 0.23
O=S(=O)(NCCN1CCNCC1)c1ccc(NC2CCCCC2)c(NCc2ccccc2)c1 [UAMC-3203 hydrochloride],1.04 ± 0.16,1.06 ± 0.021
COc1cc(N2CCC(N3CCN(C)CC3)CC2)ccc1Nc1ncc(Cl)c(Nc2ccccc2S(=O)(=O)C(C)C)n1,1.09 ± 0.073,1.02 ± 0.23
CC(C)c1nc(CN(C)C(=O)N[C@H](C(=O)N[C@@H](Cc2ccccc2)C[C@H](O)[C@H](Cc2ccccc2)NC(=O)OCc2cncs2)C(C)C)cs1 [Ritonavir],0.999 ± 0.041,0.943 ± 0.02
COc1ccc(CCCOC(Cn2ccnc2)c2ccc(OC)cc2)cc1 (stereo unspecified),1.1 ± 0.099,1.15 ± 0.12
COc1c(O)cc2c(c1O)[C@@H]1O[C@H](CO)[C@@H](O)[C@H](O)[C@H]1OC2=O [Bergenin],1.16 ± 0.064,1.13 ± 0.23
